Experimental data from paper PMC12136788.
This is one part of the list.

T1: UNK ZnF1-6 (called full-length) (human, UniProt Q9C0B0 30-357)
T1 sequence: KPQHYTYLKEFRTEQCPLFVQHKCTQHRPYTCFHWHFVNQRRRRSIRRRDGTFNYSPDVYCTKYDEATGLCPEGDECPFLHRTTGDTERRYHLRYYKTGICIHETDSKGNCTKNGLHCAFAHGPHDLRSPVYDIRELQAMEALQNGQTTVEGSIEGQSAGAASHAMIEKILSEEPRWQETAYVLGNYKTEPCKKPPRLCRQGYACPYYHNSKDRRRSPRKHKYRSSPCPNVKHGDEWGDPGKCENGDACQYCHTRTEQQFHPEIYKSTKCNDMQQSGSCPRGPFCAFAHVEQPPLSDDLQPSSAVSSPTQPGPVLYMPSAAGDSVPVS

B1: chrX:154027874:154027956:-|3pUTR|ENSG00000169057|msi1_unk|total|mutant (ssRNA)
RNA: GGGAGUUCUACAGUCCGACGAUCUGGUCCGAAGUGAGGGAGUUUGCCCCGUUCUGUUUGCCGAGUCUCACCGUUGGACUUUCCCGCAUAUAUGUGUCCAUUUCCUUAUGCUGUAAAAGCAAGUCCUGCAACCAAACUCCCAUCCAACAGAGGAUUGAGCAUCA
B2: chr1:153626309:153626462:-|CDS|ENSG00000189171|unk|FALSE|unique (ssRNA)
RNA: GGGAGUUCUACAGUCCGACGAUCUCCAUUGAGACCGUGGUCACCACCUUCUUCACCUUUGCAAGGCAGGAGGGCCGGAAGGAUAGCCUCAGCGUCAACGAGUUCAAAGAGCUGGUUACCCAGCAGUUGCCCCAUCUGCUCAAGCAACAGAGGAUUGAGCAUCA
B3: chr14:22589090:22589186:-|5pUTR_CDS|ENSG00000129562|msi1_unk|FALSE|overlapping (ssRNA)
RNA: GGGAGUUCUACAGUCCGACGAUCUCCUCCAAGAGUUUGGGGCGCGGACCGGAGUACCUUGCGUGCAGUUAUGUCGGCGUCGGUAGUGUCUGUCAUUUCGCGGUUCUUAGAAGAGUACUUGAGCUCCACUCCGCAGCGUCUGAACAACAGAGGAUUGAGCAUCA
B4: chr2:135782819:135782876:+|CDS|ENSG00000144224|msi1_unk|total|mutant (ssRNA)
RNA: GGGAGUUCUACAGUCCGACGAUCGUGAGAAAAAGAGUGCUGGAAAAACGUGGAGACGACUUUAAAAAGGAGGGGAAAAUUUACCGAUUAAGGACUCAAGAUGAUGGUGAAGAUGAAAACAACACUUGGAAUGGAAAUUCCACUCAACAGAGGAUUGAGCAUCA
B5: chr13:36848462:36848578:-|3pUTR|ENSG00000120693|unk|total|mutant (ssRNA)
RNA: GGGAGUUCUACAGUCCGACGAUCAAAUACACCGAAUGUAUACUGUUCUUAUUUUUUUUAAUCACCGUUUGUUUUGUGCUUUCCCGUUAACCUGAUGCCAGUACAGUGCAAUUGGAAAAGCAGGACUUUGGUGCCUGUGCUAUACAACAGAGGAUUGAGCAUCA
B6: chr10:22535117:22535218:-|3pUTR|ENSG00000150867|unk|FALSE|unique (ssRNA)
RNA: GGGAGUUCUACAGUCCGACGAUCAAGGUACACAUACAUUAUUUGAGUAACUGUUUCCUUGGGGGCCAAUCUGUGUAUGCUUUUAGAAGUUUACAGAAUGCUUUUAUUUUUGUCUAUAACAAACAGUCUGUCAUUUAUUUCUGUCAACAGAGGAUUGAGCAUCA
B7: chr13:110149562:110149758:-|3pUTR|ENSG00000187498|msi1|total|mutant (ssRNA)
RNA: GGGAGUUCUACAGUCCGACGAUCUAAAUAUAUAUAUAUAUCCGUAAUUUAUACCGAUGUCAGCAAUCCGGCAGAUCAAGGUUCCGUUUAACUUCCACUGUUAAAAUAAAGCUUACACCGUUUUCUUCCUUUGAAAGACUGUGCCAACAGAGGAUUGAGCAUCA
B8: ENSG00000135862:stop:overlap|stop_codon|ENSG00000135862|stop_codon|NA|stop_codon (ssRNA)
RNA: GGGAGUUCUACAGUCCGACGAUCAGGACAUCAGGAAGACCUUACCAUCUGGCUGCUUCAACACCCCGUCCAUUGAAAAGCCCUAGUGUCUUUAGGGCUGGAAGGCAGCAUCCCUCUGACAGGGGGGCAGUUGUGAGGCCACAGCAACAGAGGAUUGAGCAUCA
B9: chr8:97851660:97851768:+|3pUTR|ENSG00000104341|msi1_unk|FALSE|overlapping (ssRNA)
RNA: GGGAGUUCUACAGUCCGACGAUCAUUAACUGUAGAAUUCUUCCUGUACGAUUGGGGAUAUAAUGGGCUUCACUAACCUUCCCUAGGCAUUGAAACUUCCCCCAAAUCUGAUGGACCUAGAAGUCUGCUUUUGUACCUGCUGGGCAACAGAGGAUUGAGCAUCA
B10: chr3:196782704:196782805:+|CDS|ENSG00000180370|unk|total|mutant (ssRNA)
RNA: GGGAGUUCUACAGUCCGACGAUCAACGGAGAACUGGAAGAUAAGCCUCCAGCACCUCCUGUGCGAAUGAGCAGCACCAUCUUCCGCACUGGAGGCAAAGACCCUUUGUCAGCCAAUCACAGUUUGAAACCUUUGCCCUCUGUUCAACAGAGGAUUGAGCAUCA
B11: chr3:89481969:89482070:+|3pUTR|ENSG00000044524|msi1|total|mutant (ssRNA)
RNA: GGGAGUUCUACAGUCCGACGAUCAUAUGUGUUUACUUUAAACUUGUCUUUUCAAAAUAUUACUCAGUUUAUGUUGUACAAUGCCGAUGGCCUCUUACUAAUGUAAAAUGAUUUGCCGUGGAAACAUUUAUAUUUUUAUAAUAACAACAGAGGAUUGAGCAUCA
B12: chr14:22612100:22612201:+|3pUTR|ENSG00000100439|msi1|FALSE|unique (ssRNA)
RNA: GGGAGUUCUACAGUCCGACGAUCCCACCCCUGACCCAUCUGUCAGCUUUUUCCCAGGGAGCCGUUUCAGGGGUUCUGGGCAGUAGGCUGGGCCUGGCCUCAGAACCUGGUGGCUCCUGCCUGCUCCUUCACUUUUGUAAAACCCAACAGAGGAUUGAGCAUCA
B13: ENSG00000070961:be:win_1|CDS|ENSG00000070961|bound_else_gene|NA|bound_elsewhere_windowed (ssRNA)
RNA: GGGAGUUCUACAGUCCGACGAUCAUGGGCGACAUGGCAAACAACUCAGUUGCUUACAGUGGUGUGAAAAACUCUUUGAAGGAAGCUAAUCAUGAUGGAGACUUUGGAAUUACGCUCGCAGAGCUGCGGGCUCUCAUGGAGCUCCAACAGAGGAUUGAGCAUCA
B14: chr4:2944067:2944171:-|CDS|ENSG00000087269|unk|total|mutant (ssRNA)
RNA: GGGAGUUCUACAGUCCGACGAUCGGCUUUGUCCCAGAGGUUUAUACCUGAGCUUAUUAAUUUUCUUCUUGGGAUUCUUUACACCGCAACUCCAAACAAAGCAAGCCAAGGUGAGUUGAUUUGAGGGAGGUUCCUACAAAUAUGCAACAGAGGAUUGAGCAUCA
B15: chr2:1632407:1632508:-|3pUTR|ENSG00000130508|msi1|total|mutant (ssRNA)
RNA: GGGAGUUCUACAGUCCGACGAUCUUGGUAAGUGAUUGAUAAAAAUUGGUUGGUGUUUCAUGACAUGUGGACUUCUUUUGAAACCGCAAGUCAAAUGCCGUGACCAAAUUGUGGAAGAGAUUUCUGUCAAACCGGAAAUGUGUACAACAGAGGAUUGAGCAUCA
B16: chr11:95131931:95132033:+|3pUTR|ENSG00000149218|unk|FALSE|bound_elsewhere (ssRNA)
RNA: GGGAGUUCUACAGUCCGACGAUCGGAUAGGUGGCUGAGACCCACUGCCCUGAGCUACUAGUGUGGCUGUGCCUGUGGGUCUCUAGAACCAUCUGCAUUGGACGUGAAGCCACAGCAGGUGGCUGGACUGCUGGCCUGUUCCUACAACAGAGGAUUGAGCAUCA
B17: chrX:119453419:119453520:+|3pUTR|ENSG00000077713|unk|total|mutant (ssRNA)
RNA: GGGAGUUCUACAGUCCGACGAUCCAGGUAAUUGAAGUGGCUGAGUGGAUACCACGUUGUGAGGUCAGCCACUGGGUCACUUGCCGUCAAUGCAAAGCUUGCACAAACCAACGUCAGCCCCGUUUCACUCAGUUUGACCUGAGACAACAGAGGAUUGAGCAUCA
B18: chr7:149003559:149003660:-|3pUTR|ENSG00000155660|msi1|FALSE|unique (ssRNA)
RNA: GGGAGUUCUACAGUCCGACGAUCUUUUAUACUUUGGUGUUUCACUUCAUGCUCUGAAUACUGAAUAACCAUGAAUGACUGAAUAGUUUAGUCCAGAUUUUUACAGAGGAUACAUCUAUUUUUAUCAUUAUUUGGGGUUUGAAACAACAGAGGAUUGAGCAUCA
B19: chr1:185309019:185309167:-|CDS|ENSG00000116679|unk|total|mutant (ssRNA)
RNA: GGGAGUUCUACAGUCCGACGAUCGCACACAGAGCAGUGCCCGCUUGCUGCAGUCCCUAUUUAUUUGAAAUCUUUAACCGUGACCGUGAUCCUCAUGGAAUUUCUCACGUUAAAUUUGAUGAUCUCAAUCCAGAAGCUGUUGAACAACAGAGGAUUGAGCAUCA
B20: chr14:71588152:71588260:+|CDS|ENSG00000197555|unk|FALSE|unique (ssRNA)
RNA: GGGAGUUCUACAGUCCGACGAUCGAAAACAUAAAAGAAUCUAGCCGUUCAAGCCAGGAAAUAGAAACCUCAAGUUGCCUUGAUAGCCUGUCCUCCAAAAGCAGUCCUGUGAGUCAGGGAAGUUCUGUUAGCCUCAAUUCCAAUCAACAGAGGAUUGAGCAUCA
B21: chr5:141516432:141516515:-|3pUTR|ENSG00000131504|msi1_unk|FALSE|overlapping (ssRNA)
RNA: GGGAGUUCUACAGUCCGACGAUCCUCAGACAAGGCCCAGCCUGCUUUUUCUCAGCCCUGACUUUCUAAUGGGCUUUCCCCCCUAGGUCAGUCUUGCUGGAUUUGUGCUUUUCUUUUGUGGUUUCUCUGGCCCUGAGAAUAGCACAACAGAGGAUUGAGCAUCA
B22: ENSG00000198589:be:win_3501|CDS|ENSG00000198589|bound_else_gene|NA|bound_elsewhere_windowed (ssRNA)
RNA: GGGAGUUCUACAGUCCGACGAUCUGAUACUGAAACUCAAGAUUCUAAAGAUUCUGGAAUUCAGACUAUGACAGCAUCAGGGUCUUCAGCUAUGUCACCAGAAACUACUGUUUCCCAAAUAGCUGUAGAAUCAGACCUUGGUCACAACAGAGGAUUGAGCAUCA

What follows are binders tested against T1, UNK ZnF1-6 (called full-length) (assay: nsRBNS (natural sequence RNA bind-n-seq); RBNS binding buffer (assumed for nsRBNS): 25 mM Tris pH 7.5, 150 mM KCl, 3 mM MgCl2, 0.01% Triton X-100, 500 ug/ml BSA, 20 U/ml SUPERase-In, 4 C; UNK is unkempt and MSI1 is Musashi-1; names of the RNAs are library labels; protein concentration not given here; high values mean tight binding).

| Binder | binding signal |
| --- | --- |
| B1 | 0.921 enrichment R |
| B2 | 0.514 enrichment R |
| B3 | 0.741 enrichment R |
| B4 | 0.715 enrichment R |
| B5 | 1.67 enrichment R |
| B6 | 0.472 enrichment R |
| B7 | 1.36 enrichment R |
| B8 | 0.567 enrichment R |
| B9 | 1.04 enrichment R |
| B10 | 0.544 enrichment R |
| B11 | 0.702 enrichment R |
| B12 | 0.718 enrichment R |
| B13 | 0.508 enrichment R |
| B14 | 0.726 enrichment R |
| B15 | 0.207 enrichment R |
| B16 | 0.43 enrichment R |
| B17 | 0.475 enrichment R |
| B18 | 0.578 enrichment R |
| B19 | 0.633 enrichment R |
| B20 | 0.808 enrichment R |
| B21 | 0.705 enrichment R |
| B22 | 0.311 enrichment R |
